The supplement of paper PMC12067230
The data scatter; read single values as rough.

Test: amyloid nucleation score relative to library mode (yeast Sup35 reporter selection) (log enrichment difference); higher = more amyloid nucleation; sequences are the first 22 residues of the Bri2 peptide extended by up to 12 random residues
Conditions: random library (experiment): 1;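 active = nucleation score significantly above 0 at FDR 0.05; inactive = not significantly above 0 or absent from output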
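Further: [psi-pin-] Saccharomyces cerevisiae expressing SupN fusions, induced by 100 µM Cu2SO4, selected 7 d at 30 °C without adenine and uracil, scored by deep sequencing of output versus input.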

Sequence	amyloid nucleation score
EASNCFAIRHFENKFAVETLICLNTGFKGNQPLS	2.6
EASNCFAIRHFENKFAVETLICMLKDPAYVMRYL	inactive
EASNCFAIRHFENKFAVETLICYSTTPQSRRCEV	3.01
EASNCFAIRHFENKFAVETLICCCSLVLRVVLTY	inactive
EASNCFAIRHFENKFAVETLICLMRS	inactive
EASNCFAIRHFENKFAVETLICGPRRPSGAVRCR	inactive
EASNCFAIRHFENKFAVETLICTMIGARICESAW	-0.258
EASNCFAIRHFENKFAVETLICGSEPVSQGTAAC	inactive
EASNCFAIRHFENKFAVETLICGSLLR	inactive
EASNCFAIRHFENKFAVETLICTSVTRNNSGQAM	2.56
EASNCFAIRHFENKFAVETLICVTGT	inactive
EASNCFAIRHFENKFAVETLICWTPNATHRVNGG	2.94
EASNCFAIRHFENKFAVETLICLVICVGHPGSLD	inactive
EASNCFAIRHFENKFAVETLICCDFTSVI	7.75
EASNCFAIRHFENKFAVETLICRTRSNLSMKVRS	inactive
EASNCFAIRHFENKFAVETLICRFDAPLSFVDKE	inactive

Sequence	amyloid nucleation score
EASNCFAIRHFENKFAVETLICLHDICPFGCMYG	6.05
EASNCFAIRHFENKFAVETLICATELQLRCHG	inactive
EASNCFAIRHFENKFAVETLICRYHRVGRVAVKR	inactive
EASNCFAIRHFENKFAVETLICVGWDRRDRVRRR	inactive
EASNCFAIRHFENKFAVETLICCSCWS	9.16
EASNCFAIRHFENKFAVETLICVPVITNRTWNVA	4.42
EASNCFAIRHFENKFAVETLICCLGFIPRLDQSW	4.38
EASNCFAIRHFENKFAVETLICWIEPVSQNRAQR	0.683
EASNCFAIRHFENKFAVETLICAVPLTGTVIQLS	inactive
EASNCFAIRHFENKFAVETLICIVR	inactive
EASNCFAIRHFENKFAVETLICHASVQHVRMSIG	inactive
EASNCFAIRHFENKFAVETLICLTVVKVYEYYV	2.63
EASNCFAIRHFENKFAVETLICCLSGNVWGVYYS	inactive
EASNCFAIRHFENKFAVETLICHGSVTAVMDLEG	-0.00976
EASNCFAIRHFENKFAVETLICCMQVELRATRG	3.57
EASNCFAIRHFENKFAVETLICQDWYRGTTSSCR	inactive

Same assay, conditions: random library (experiment): 2

Sequence	amyloid nucleation score
EASNCFAIRHFENKFAVETLICILLYGSMCLPHR	inactive
EASNCFAIRHFENKFAVETLICICGGDTIEDLME	7.15
EASNCFAIRHFENKFAVETLICGRKPRADARERR	2.63
EASNCFAIRHFENKFAVETLICVKEYSNATYCDP	inactive
EASNCFAIRHFENKFAVETLICITPLHEE	inactive
EASNCFAIRHFENKFAVETLICVRLVINSRKKAW	2.02
EASNCFAIRHFENKFAVETLICILPCLASLQIRV	inactive
EASNCFAIRHFENKFAVETLICEVGCHFSSDSSI	1.1
EASNCFAIRHFENKFAVETLICPMCLRLYPILFR	inactive
EASNCFAIRHFENKFAVETLICQGDVCIYLRYTV	inactive
EASNCFAIRHFENKFAVETLICTQKDNGYTADNS	inactive
EASNCFAIRHFENKFAVETLICTCKCLWFYLP	inactive
EASNCFAIRHFENKFAVETLICVLFVFNIWLLSP	3.65
EASNCFAIRHFENKFAVETLICKVISNSMLIWVL	-0.104
EASNCFAIRHFENKFAVETLICVMHVFFWSFRTV	0.4
EASNCFAIRHFENKFAVETLICYSKYTLCDRHHP	3.37
EASNCFAIRHFENKFAVETLICHYSFVLDICGSC	inactive
EASNCFAIRHFENKFAVETLICDLYKFWNSSMST	inactive
EASNCFAIRHFENKFAVETLICMLMIVSLVFVAP	6.51
EASNCFAIRHFENKFAVETLICIWHYTECYYILR	0.357
EASNCFAIRHFENKFAVETLICEWSVL	0.598
EASNCFAIRHFENKFAVETLICVGISDSTGYLGF	-0.531
EASNCFAIRHFENKFAVETLICVFEVCLDVMSVE	inactive
EASNCFAIRHFENKFAVETLICKVPVNHVRCLWC	inactive
EASNCFAIRHFENKFAVETLICVNC	inactive
EASNCFAIRHFENKFAVETLICNWAQCGLSMVWG	5.27

Same assay, conditions: random library (experiment): 3

Sequence	amyloid nucleation score
EASNCFAIRHFENKFAVETLICHSDVVVRATGLL	inactive
EASNCFAIRHFENKFAVETLICLMRVT	inactive
EASNCFAIRHFENKFAVETLICVCVGVGASNWVV	5.24
EASNCFAIRHFENKFAVETLICLRFYLYSSSPCA	inactive
EASNCFAIRHFENKFAVETLICANSLYMDGIFAV	inactive
EASNCFAIRHFENKFAVETLICRQNAELSSNESK	0.328
EASNCFAIRHFENKFAVETLICANVWIMGGSLVM	6.87
EASNCFAIRHFENKFAVETLICVEFQARCGDQVS	inactive
EASNCFAIRHFENKFAVETLICRRSGTSPGAPWG	1.4
EASNCFAIRHFENKFAVETLICRYFMFCNMYAWG	inactive
EASNCFAIRHFENKFAVETLICFIGYGEVSRACL	7.22
EASNCFAIRHFENKFAVETLICRVI	inactive
EASNCFAIRHFENKFAVETLICNHCNGSGYKVAE	inactive
EASNCFAIRHFENKFAVETLICFMVGHLSLIRGS	inactive
EASNCFAIRHFENKFAVETLICPNVD	inactive
EASNCFAIRHFENKFAVETLICLVTRCGQRLAWG	inactive
EASNCFAIRHFENKFAVETLICPPRMMVVEVVSV	inactive
EASNCFAIRHFENKFAVETLICLELANQLDALCR	inactive
EASNCFAIRHFENKFAVETLICLSFESKLSKMFD	4.44
EASNCFAIRHFENKFAVETLICRCHTGCG	6.2
EASNCFAIRHFENKFAVETLICGANGWMRRVVVL	inactive
EASNCFAIRHFENKFAVETLICGMTGDSIRLWVT	3.81
EASNCFAIRHFENKFAVETLICYIPGRCCVYYKS	inactive
EASNCFAIRHFENKFAVETLICGMLLYISALSDG	inactive
EASNCFAIRHFENKFAVETLICYTLLKEPVRWLQ	inactive
EASNCFAIRHFENKFAVETLICGDDSGWFSARAR	inactive
EASNCFAIRHFENKFAVETLICMDADLCTKGGQA	inactive
EASNCFAIRHFENKFAVETLICKWDRNEMQLRLP	inactive
